# Assay results published in PubChem BioAssay (Tox21).
# Where “and” joins values, the source holds several entries; their conditions need not be identical. Equal entries are not always repeated. The shares of active, inactive and inconclusive entries below differ from those in the screen. Where the call is inconclusive, the potency comes from a doubtful curve fit. Calls of active or inactive are those of the source. Unless noted, the call rests on the fitted dose curve; in most records, active means well fitted curve in the direction sought with a large enough effect in the repeat runs; inconclusive means weak or mixed curves; inactive means no such curve, though single readings can be large; an effect the other way counts as inactive or inconclusive.
# How the values were obtained:
# [1] = biological target: Glucocorticoid receptor (Homo sapiens) (UniProt P04150); assay: qHTS assay to identify small molecule antagonists of the glucocorticoid receptor (GR) signaling pathway (AID 720692; active means well fitted inhibition curve with a large enough effect in the signal ratio in the repeat runs, not every such curve was filed as active; inconclusive means weak or mixed curves, or effect the other way; inactive means no such curve, though single readings can be large or run the other way; the % refers to the signal ratio; on activity change, negative = inhibition: on the % scale 0 is the no-effect control and ±100 the full control effect); conditions: GR-bla HeLa, beta-lactamase FRET ratio, dexamethasone-stimulated, 18 h; activity change, negative = inhibition: at 58.5 µM (top of the series) unless noted
# UniProt P04150, sequence (P04150 whole entry, looked up): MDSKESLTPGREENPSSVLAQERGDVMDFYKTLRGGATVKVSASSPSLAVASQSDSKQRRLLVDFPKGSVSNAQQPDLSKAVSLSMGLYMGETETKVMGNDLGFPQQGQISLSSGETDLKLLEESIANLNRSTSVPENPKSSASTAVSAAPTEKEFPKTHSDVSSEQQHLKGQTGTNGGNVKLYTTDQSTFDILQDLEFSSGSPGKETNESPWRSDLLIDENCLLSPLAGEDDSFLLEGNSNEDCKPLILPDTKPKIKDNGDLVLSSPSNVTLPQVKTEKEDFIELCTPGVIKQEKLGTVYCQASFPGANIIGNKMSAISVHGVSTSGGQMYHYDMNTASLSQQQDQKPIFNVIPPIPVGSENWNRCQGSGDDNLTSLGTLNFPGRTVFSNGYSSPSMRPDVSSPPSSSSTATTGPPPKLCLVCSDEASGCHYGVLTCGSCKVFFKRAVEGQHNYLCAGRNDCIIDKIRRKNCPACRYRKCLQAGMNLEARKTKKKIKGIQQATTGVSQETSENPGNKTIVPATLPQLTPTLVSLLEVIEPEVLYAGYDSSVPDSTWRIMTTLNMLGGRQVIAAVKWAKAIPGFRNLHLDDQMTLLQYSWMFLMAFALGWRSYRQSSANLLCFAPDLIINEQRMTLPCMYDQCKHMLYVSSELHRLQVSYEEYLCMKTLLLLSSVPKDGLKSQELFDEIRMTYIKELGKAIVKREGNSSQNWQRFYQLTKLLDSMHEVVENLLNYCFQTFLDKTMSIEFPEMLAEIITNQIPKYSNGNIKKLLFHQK
# How it was run: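 Fluorescence from cleaved LiveBLAzer B/G FRET substrate reports GRE-driven beta-lactamase in HeLa cells; compounds are tested against 5 nM dexamethasone (final) over 18 h at 37 C, substrate incubation 2 h at room temperature.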
# [2] = qHTS assay for identifying genotoxic compounds that show differential cytotoxicity against isogenic chicken DT40 cell lines with known DNA damage response pathways - Rad54/Ku70 mutant cell line (AID 743015); conditions: DT40 Rad54/Ku70 mutant viability, CellTiter-Glo, 40 h; activity change, negative = cytotoxicity: at 66.8 µM (top of the series); further: nearly all actives have a fitted effect of over 60% in size; on activity change, negative = cytotoxicity: on the % scale 0 is the no-effect control and ±100 the full control effect
# [3] = qHTS assay for identifying genotoxic compounds that show differential cytotoxicity against isogenic chicken DT40 cell lines with known DNA damage response pathways - Rev3 mutant cell line (AID 743014); conditions: chicken DT40 Rev3-/- viability, CellTiter-Glo, 40 h; activity, negative = cytotoxicity: at 68.4 µM (top of the series) unless noted; further: nearly all actives have a fitted effect of over 55% in size
# [4] = biological target: Androgen receptor (Homo sapiens) (UniProt P10275); assay: qHTS assay to identify small molecule antagonists of the androgen receptor (AR) signaling pathway (AID 743035; active means well fitted inhibition curve with a large enough effect in the signal ratio in the repeat runs, not every such curve was filed as active; inconclusive means weak or mixed curves, or effect the other way; inactive means no such curve, though single readings can be large or run the other way; the % refers to the signal ratio); conditions: HEK293 AR-UAS-bla, R1881-stimulated, beta-lactamase FRET, 16 h; activity change, negative = inhibition: at 58.5 µM (top of the series) unless noted
# UniProt P10275, sequence (P10275 whole entry, looked up): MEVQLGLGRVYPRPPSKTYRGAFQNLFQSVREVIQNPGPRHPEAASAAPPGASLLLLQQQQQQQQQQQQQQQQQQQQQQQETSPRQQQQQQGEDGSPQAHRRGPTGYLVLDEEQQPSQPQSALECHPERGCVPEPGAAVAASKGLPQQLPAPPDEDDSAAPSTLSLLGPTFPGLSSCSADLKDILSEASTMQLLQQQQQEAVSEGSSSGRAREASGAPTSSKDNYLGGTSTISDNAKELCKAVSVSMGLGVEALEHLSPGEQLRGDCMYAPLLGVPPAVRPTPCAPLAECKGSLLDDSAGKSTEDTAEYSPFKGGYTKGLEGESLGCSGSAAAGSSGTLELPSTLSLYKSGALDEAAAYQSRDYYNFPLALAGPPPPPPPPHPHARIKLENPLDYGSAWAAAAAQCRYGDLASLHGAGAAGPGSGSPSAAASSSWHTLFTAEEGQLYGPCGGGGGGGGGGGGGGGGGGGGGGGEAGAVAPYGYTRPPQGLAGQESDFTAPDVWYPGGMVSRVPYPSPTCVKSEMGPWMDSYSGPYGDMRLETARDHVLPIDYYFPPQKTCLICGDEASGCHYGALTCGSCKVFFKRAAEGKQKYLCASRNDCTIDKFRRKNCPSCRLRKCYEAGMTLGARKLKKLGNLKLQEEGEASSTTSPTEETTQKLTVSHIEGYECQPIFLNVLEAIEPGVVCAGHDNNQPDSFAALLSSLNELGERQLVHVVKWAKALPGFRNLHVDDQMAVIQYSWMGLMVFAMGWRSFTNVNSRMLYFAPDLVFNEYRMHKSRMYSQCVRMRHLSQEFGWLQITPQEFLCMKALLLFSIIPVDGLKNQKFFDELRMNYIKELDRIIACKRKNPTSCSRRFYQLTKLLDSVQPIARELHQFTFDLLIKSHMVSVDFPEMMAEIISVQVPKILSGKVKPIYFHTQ
# How it was run: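 Cell line: GeneBLAzer AR-UAS-bla GripTite (HEK293). Stimulus: R1881 added after compound. Exposure: 16 h, 37C, 5% CO2. Readout: LiveBLAzer B/G FRET fluorescence after 2 h at room temperature.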
# [5] = qHTS assay to identify small molecule antagonists of the glucocorticoid receptor (GR) signaling pathway - cell viability counter screen (AID 720693); conditions: GR-bla HeLa viability, CellTiter-Glo luminescence, 18 h, with 5 nM dexamethasone present; viability change, negative = cytotoxic: at 58.5 µM (top of the series) unless noted; further: nearly all actives have a fitted effect of over 55% in size; on viability change, negative = cytotoxic: on the % scale 0 is the no-effect control and ±100 the full control effect
# [6] = qHTS assay to identify small molecule antagonists of the androgen receptor (AR) signaling pathway - cell viability counter screen (AID 743033; further: nearly all actives have a fitted effect of over 45% in size; on activity change, negative = cytotoxicity: on the % scale 0 is the no-effect control and ±100 the full control effect); conditions: AR-bla HEK293 viability, CellTiter-Glo luminescence, 16 h; activity change, negative = cytotoxicity: at 58.5 µM (top of the series) unless noted
# [7] = qHTS assay for identifying genotoxic compounds that show differential cytotoxicity against isogenic chicken DT40 cell lines with known DNA damage response pathways - wild type cell line (AID 743012); conditions: DT40 wild type chicken cells viability, CellTiter-Glo, 40 h; activity change, negative = cytotoxicity: at 68.4 µM (top of the series) unless noted; further: nearly all actives have a fitted effect of over 60% in size
# How it was run: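 Quantitative HTS on parental DT40 cells: 40 h compound treatment at 37 C/5% CO2, with viability then determined by CellTiter-Glo luminescence. Values serve as the DNA repair-proficient reference for differential cytotoxicity.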
# Potency means the concentration at half of the fitted maximal effect; tags describe the fitted curve by direction and shape or compound fluorescence and quenching.
compound,measurement,setting,value
COC(c1ccccc1)(c1ccccc1)[C@H](Oc1nc(C)cc(C)n1)C(=O)O,"activity change, negative = inhibition",[1],inconclusive: -7.06%
same,Potency,[2],inactive
CCOC(=O)CC(=O)c1ccccc1,Potency,[1],inactive
same,Potency,[3],"inconclusive: 24.3 µM [cytotoxic, partial curve, poor fit]"
O=C1Nc2ccc([N+](=O)[O-])cc2C1=O,Potency,[1],inactive
same,Potency,[3],"inconclusive: 76.8 µM [cytotoxic, partial curve, poor fit]"
CNC(=O)Nc1ccc(Cl)c(Cl)c1,"activity change, negative = inhibition",[1],inconclusive: -8.22%
same,Potency,[3],"inconclusive: 24.3 µM [cytotoxic, partial curve]"
same,Potency,[2],"inconclusive: 54.5 µM [cytotoxic, partial curve]"
same,Potency,[4],inconclusive: 43.6 µM [partial curve]
CN(C)c1ccc(CCO)cc1,Potency,[5],inactive
COC(=O)C1=C(C)NC(C)=C(C(=O)OC(C)C)C1c1cccc2nonc12 (configuration not stated),Potency,[1],"inconclusive: 5.74 µM [activator, partial curve, poor fit]"
same,Potency,[2],inconclusive: 14.3 µM [cytotoxic]
same,Potency,[6],inconclusive: 0.0011 µM [cytotoxic]
C=C(C)C(=O)OCC,Potency,[1],inactive
same,Potency,[2],inactive
same,Potency,[6],"inconclusive: 0.0289 µM [cytotoxic, full curve, poor fit]"
Cc1nn(C)c(Oc2ccccc2)c1/C=N/OCc1ccc(C(=O)OC(C)(C)C)cc1,"activity change, negative = inhibition",[1],inconclusive: -31%
same,"activity change, negative = cytotoxicity",[2],inconclusive: -146%
same,Potency,[6],"inconclusive: 0.0022 µM [cytotoxic, full curve, poor fit]"
same,Potency,[4],active: 0.123 µM
CCN(CC)CCOc1ccc2c(c1)C(=O)c1cc(OCCN(CC)CC)ccc1-2,Potency,[1],"inconclusive: 23.9 µM [activator, partial curve]"
same,Potency,[2],active: 5.96 µM
NCC(=O)CCC(=O)O,Potency,[5],inactive
CC1COc2c(N3CCN(C)CC3)c(F)cc3c(=O)c(C(=O)O)cn1c23 (configuration not stated),Potency,[5],inactive
CC1=CC(=O)/C(=C(/C)O)C(=O)O1,Potency,[1],inactive
same,Potency,[2],inactive
CC(C)(c1ccc(Oc2ccc3c(c2)C(=O)OC3=O)cc1)c1ccc(Oc2ccc3c(c2)C(=O)OC3=O)cc1,Potency,[1],inactive
same,Potency,[6],inactive
O=[N+]([O-])c1cc[n+]([O-])cc1,"activity change, negative = inhibition",[1],inconclusive: -12.3%
same,Potency,[2],inactive
same,Potency,[6],"inconclusive: 38.9 µM [cytotoxic, partial curve]"
same,"activity change, negative = inhibition",[4],inconclusive: -35.1%
COc1ccc(CCC(=O)c2c(O)cc(O[C@@H]3O[C@H](CO)[C@@H](O)[C@H](O)[C@H]3O[C@@H]3O[C@@H](C)[C@H](O)[C@@H](O)[C@H]3O)cc2O)cc1O,"activity change, negative = inhibition",[1],inconclusive: 18.4%
same,Potency,[4],inactive
CC(C)SCc1ccco1,"viability change, negative = cytotoxic",[5],inconclusive: -0.676% [at 27 µM]
CN(C)C(=O)NC1(c2ccccc2)CCN(CCC[C@]2(c3ccc(Cl)c(Cl)c3)CCCN(C(=O)c3ccccc3)C2)CC1,Potency,[1],inactive
same,Potency,[2],active: 9.2 µM
same,Potency,[6],inconclusive: 11.7 µM [cytotoxic]
CCC1=C(C)CN(C(=O)NCCc2ccc(S(=O)(=O)NC(=O)NC3CCC(C)CC3)cc2)C1=O (configuration not stated),Potency,[1],inactive
same,Potency,[4],inactive
CCCCCCCCCCCCCCCC/C=C/C1CC(=O)OC1=O (configuration not stated),"activity change, negative = inhibition",[1],inconclusive: -16.4%
same,Potency,[2],"inconclusive: 33.3 µM [cytotoxic, single point]"
CC(COc1ccccc1)NN (configuration not stated),Potency,[5],inactive
CN1CCN(C2=Nc3ccccc3Sc3ccc(Cl)cc32)CC1,Potency,[1],inactive
same,Potency,[6],"inconclusive: 26.8 µM [cytotoxic, partial curve, poor fit]"
same,"activity change, negative = inhibition",[4],inconclusive: -49.4%
Cc1cc(O)c2c(O)c3c(O)cccc3cc2c1,Potency,[1],"inconclusive: 10.7 µM [inhibitor, partial curve]"
same,Potency,[2],"inconclusive: 33.5 µM [cytotoxic, single point]"
same,Potency,[4],inactive
CN1CCN(c2c(F)cc3c(=O)c(C(=O)O)cn(CCF)c3c2F)CC1,Potency,[5],inactive
CCCC(=O)OCCC(C)C,Potency,[1],inactive
same,Potency,[4],inactive
O=C1CCC(C2CCCCC2)CC1,Potency,[1],inactive
same,Potency,[2],inactive
CC(C)CC(=O)C1C(=O)c2ccccc2C1=O,"activity change, negative = inhibition",[1],inconclusive: 35.6%
same,Potency,[4],active: 49 µM
COc1cc(OC)c(C(=O)CCCN2CCCC2)c(OC)c1,Potency,[1],inactive and inconclusive: 43.6 µM [activator]
same,Potency,[6],inactive
CN1CCN(CC(=O)N2c3ccccc3C(=O)Nc3cccnc32)CC1,"activity change, negative = inhibition",[1],inconclusive: 6.09%
same,Potency,[6],"inconclusive: 10.7 µM [rising, single point]"
C=CC(=O)OCCOc1ccccc1,Potency,[1],active: 21.9 µM
same,Potency,[2],"inconclusive: 68.5 µM [cytotoxic, single point]"
CCOc1ccc(N=Nc2ccc(/C=C/c3ccc(N=Nc4ccc(OCC)cc4)cc3S(=O)(=O)O)c(S(=O)(=O)O)c2)cc1,Potency,[1],inactive
same,Potency,[2],inactive
CCCCCCCCCCCc1ccccc1,"activity change, negative = inhibition",[1],inconclusive: -18.6%
same,Potency,[2],"inconclusive: 67.7 µM [cytotoxic, single point]"
Clc1cccc(C(c2ccc3nc[nH]c3c2)n2ccnc2)c1 (configuration not stated),"activity change, negative = inhibition",[1],inconclusive: -32.8%
same,Potency,[2],active: 26.6 µM
same,Potency,[4],"inconclusive: 26.8 µM [falling, single point]"
CCO[C@H](Cc1ccc(OCCc2ccc(OS(C)(=O)=O)cc2)cc1)C(=O)O,Potency,[1],inactive
same,Potency,[4],inactive
C1CSCCS1,Potency,[1],inactive
same,Potency,[2],inactive
NC(=S)Nc1cccc2ccccc12,"activity change, negative = inhibition",[1],inactive: -3.43% [at 7.04 µM]
same,Potency,[2],"inconclusive: 2.75 µM [cytotoxic, single point]"
NCc1ccccc1,Potency,[5],inactive
CN(C)CCCOc1nn(Cc2ccccc2)c2ccccc12,Potency,[5],inactive
COc1ccc(C(=O)c2cccc(O)c2)c(OC)c1,"activity change, negative = inhibition",[1],inconclusive: 0.017%
same,Potency,[2],"inconclusive: 68.5 µM [cytotoxic, single point]"
same,Potency,[4],inconclusive: 54.8 µM
CCCCCCCCCCCC(=O)N(C)CC(=O)O,Potency,[1],inconclusive: 53.2 µM [inhibitor]
same,Potency,[6],"inconclusive: 47.4 µM [cytotoxic, partial curve, poor fit]"
CCCCC[Si](OCC)(OCC)OCC,"activity change, negative = inhibition",[1],inconclusive: -1.25%
same,"activity change, negative = inhibition",[4],inconclusive: -35.2%
N#CCC(=O)O,Potency,[1],inactive
same,Potency,[6],inactive
COC(=O)[C@H]1[C@H]2C[C@@H]3c4[nH]c5cc(OC)ccc5c4CCN3C[C@H]2C[C@@H](OC(=O)COc2ccc(OC)cc2)[C@@H]1OC,"activity change, negative = inhibition",[1],inconclusive: -16.1%
same,Potency,[6],"inconclusive: 0.0425 µM [rising, full curve]"
CC(=O)OC(C)(C)C1CC=C(C)CC1 (configuration not stated),Potency,[5],inactive
Cc1cccc(C)c1NC(=O)CN(CC(=O)O)CC(=O)O,Potency,[1],inactive
same,Potency,[2],"inconclusive: 9.44 µM [cytotoxic, partial curve, poor fit]"
CC(C)CC=O,Potency,[5],inactive
same,Potency,[7],inactive
COc1ccc(C(=O)Nc2ccccc2)cc1[N+](=O)[O-],Potency,[5],inactive
same,Potency,[7],"inconclusive: 69.1 µM [cytotoxic, single point]"
same,Potency,[3],"inconclusive: 69.1 µM [cytotoxic, single point]"
same,Potency,[2],"inconclusive: 69.1 µM [cytotoxic, single point]"
same,Potency,[6],inactive
Nc1nccs1,Potency,[5],"inconclusive: 26.8 µM [cytotoxic, single point]"
same,Potency,[3],"inconclusive: 18.8 µM [rising, partial curve, poor fit]"
CCOC(=O)c1ccc(C)cc1,Potency,[5],inactive
O=C(C1CCCCC1)N1CC(=O)N2CCc3ccccc3C2C1 (configuration not stated),Potency,[5],"inconclusive: 0.436 µM [rising, full curve, poor fit]"
same,Potency,[7],"inconclusive: 27.3 µM [rising, partial curve, poor fit]"
same,Potency,[3],"inconclusive: 26.6 µM [rising, partial curve, poor fit]"
same,Potency,[2],"inconclusive: 68.5 µM [cytotoxic, single point]"
CCNC(=S)NCC,Potency,[5],inactive
same,Potency,[7],"inconclusive: 27 µM [rising, partial curve, poor fit]"
same,Potency,[2],inactive
CC(C)CC(=O)O,Potency,[5],"inconclusive: 0.427 µM [rising, full curve, poor fit]"
COc1c2occc2cc2ccc(=O)oc12,Potency,[5],inactive
same,Potency,[7],"inconclusive: 54.8 µM [rising, partial curve, poor fit]"
same,Potency,[3],inconclusive: 69 µM [cytotoxic]
same,Potency,[2],"inconclusive: 61.1 µM [cytotoxic, single point]"
c1ccc2cnncc2c1,Potency,[5],inactive
same,Potency,[7],"inconclusive: 0.971 µM [rising, single point]"
C=CC(O)CCCCC (configuration not stated),Potency,[5],inactive
same,Potency,[7],"inconclusive: 68.6 µM [cytotoxic, single point]"
C=CCNC(N)=S,Potency,[5],inactive
same,Potency,[3],"inconclusive: 37.6 µM [rising, partial curve, poor fit]"
CC1(C)[C@H]2CC[C@]1(C)[C@H](O)C2,Potency,[5],"inconclusive: 0.952 µM [rising, single point]"
same,Potency,[2],inactive
Nc1cc(S(=O)(=O)O)ccc1S(=O)(=O)O,Potency,[5],inactive
same,Potency,[6],"inconclusive: 61.6 µM [rising, partial curve, poor fit]"
CCOC(=O)c1cnc2c(cnn2CC)c1NN=C(C)C,Potency,[5],inactive
same,Potency,[7],"inconclusive: 33.5 µM [cytotoxic, single point]"
same,Potency,[3],inconclusive: 33.5 µM [cytotoxic]
same,Potency,[2],"inconclusive: 33.5 µM [cytotoxic, single point]"
O=C(O)[C@H](O)[C@@H](O)[C@H](O)[C@H](O)CO,Potency,[5],inactive
same,Potency,[7],"inconclusive: 26.6 µM [cytotoxic, single point] and inactive"
CCOC(=O)COc1ccc2c(c1)CC(NCC(O)c1cccc(Cl)c1)CC2 (configuration not stated),Potency,[5],"inconclusive: 55.4 µM [cytotoxic, single point]"
same,Potency,[3],active: 54.9 µM
